Reference: the supplement of paper PMC4604168 (melanoma cell lines)
Some of the results follow. Most values come without repeats; read them as rough.

Tests used:
Experiment in all cases: cell count relative to DMSO control; melanoma cells; higher = more viable cells
Settings in all cases: library dose: standard library concentration; 72 h
SkMel28 = test system: SkMel28
SkMel2 = test system: SkMel2
SkMel30 = test system: SkMel30
SkMel5 = test system: SkMel5
UACC257 = test system: UACC257
UACC62 = test system: UACC62
WM115 = test system: WM115
WM1716 = test system: WM1716
WM1745 = test system: WM1745
WM3526 = test system: WM3526
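Note: cells treated in 1,536-well plates, then fixed and DAPI-stained, with nuclei counted from automated high-throughput microscope images.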

SMILES | cell count (SkMel28) | cell count (SkMel2) | cell count (SkMel30) | cell count (SkMel5) | cell count (UACC257) | cell count (UACC62) | cell count (WM115) | cell count (WM1716) | cell count (WM1745) | cell count (WM3526)
NC1(c2ccc(-c3nc4ccn5c(=O)[nH]nc5c4cc3-c3ccccc3)cc2)CCC1 + O=C(O)c1ccc2c(c1)nc(Nc1cccc(Cl)c1)c1ccncc12 [CX4945] (first compound 2 µM, partner dose 2 µM) | 41.9% | 63.7% | 64.9% | 64.1% | 86.9% | 51.7% | 58.9% | 69.5% | 62.5% | 44.3%
CN(c1ncccc1CNc1nc(Nc2ccc3c(c2)CC(=O)N3)ncc1C(F)(F)F)S(C)(=O)=O + CC(C)C[C@H](NC(=O)[C@H](Cc1ccccc1)NC(=O)c1cnccn1)B(O)O [Bortezomib] (first compound 0.4 µM, partner dose 0.005 µM) | 25.5% | 35.3% | 38.1% | 22.2% | 72.2% | 61.3% | 19.6% | 16.7% | 21.1% | 31%
NC1(c2ccc(-c3nc4ccn5c(=O)[nH]nc5c4cc3-c3ccccc3)cc2)CCC1 + O=C(O)c1ccc(-c2c[nH]c3ncc(-c4ccccc4)cc23)cc1C1CCCC1 [GSK650394] (first compound 2 µM, partner dose 0.8 µM) | 53.9% | 62.5% | 109% | 57.4% | 86.3% | 76.7% | 95.2% | 94.9% | 83.5% | 71.3%
C=C(c1ccc(C(=O)O)cc1)c1cc2c(cc1C)C(C)(C)CCC2(C)C [Bexarotene] + O=C(CCCCCCC(=O)Nc1ccccc1)NO [vorinostat] (first compound 10 µM, partner dose 0.4 µM) | 34.7% | 90.3% | 131% | 60.9% | 73.3% | 78.3% | 68.9% | 69.9% | 73.5% | 81.8%
CN(c1ncccc1CNc1nc(Nc2ccc3c(c2)CC(=O)N3)ncc1C(F)(F)F)S(C)(=O)=O + COc1ccc(Cl)c(Nc2nc3ccccc3nc2NS(=O)(=O)c2cccc(NC(=O)C(C)(C)N)c2)c1 [XL147] (first compound 0.4 µM, partner dose 4 µM) | 61.6% | 77.3% | 107% | 73.1% | 76.5% | 74.7% | 68.1% | 72.6% | 53.6% | 88.1%
CN(c1ncccc1CNc1nc(Nc2ccc3c(c2)CC(=O)N3)ncc1C(F)(F)F)S(C)(=O)=O + Cn1c(Nc2ccc(C(F)(F)F)cc2)nc2cc(Oc3ccnc(-c4ncc(C(F)(F)F)[nH]4)c3)ccc21 [CHIR265] (first compound 0.4 µM, partner dose 0.4 µM) | 43.7% | 30.1% | 51% | 32.7% | 75.6% | 29.6% | 33.3% | 59.8% | 39.7% | 39.7%
CN(c1ncccc1CNc1nc(Nc2ccc3c(c2)CC(=O)N3)ncc1C(F)(F)F)S(C)(=O)=O + Nc1cccc2c1CN(C1CCC(=O)NC1=O)C2=O [lenalidomide] (first compound 0.4 µM, partner dose 5 µM) | 64.8% | 69% | 92.3% | 78.4% | 97.1% | 63.1% | 82.5% | 84.3% | 70.3% | 76.2%
CS(=O)(=O)c1ccc(C(=O)Nc2ccc(Cl)c(-c3ccccn3)c2)c(Cl)c1 [vismodegib] + NCC(=O)Nc1ccc(-n2nc(C(F)(F)F)cc2-c2ccc3c(ccc4ccccc43)c2)cc1 [OSU03012] (first compound 5 µM, partner dose 5 µM) | 32.3% | 38.2% | 46.4% | 86.2% | 69.6% | 78.5% | 77.5% | 95.2% | 106% | 50.4%
CN(c1ncccc1CNc1nc(Nc2ccc3c(c2)CC(=O)N3)ncc1C(F)(F)F)S(C)(=O)=O + O=C(O)c1ccc(-c2c[nH]c3ncc(-c4ccccc4)cc23)cc1C1CCCC1 [GSK650394] (first compound 0.4 µM, partner dose 0.8 µM) | 69% | 65.6% | 111% | 87.1% | 66.5% | 71.4% | 106% | 88.4% | 74.5% | 105%
C=C(c1ccc(C(=O)O)cc1)c1cc2c(cc1C)C(C)(C)CCC2(C)C [Bexarotene] + O=C(O)c1ccc(-c2c[nH]c3ncc(-c4ccccc4)cc23)cc1C1CCCC1 [GSK650394] (first compound 10 µM, partner dose 0.8 µM) | 79.5% | 75.5% | 113% | 98.7% | 71.7% | 78.4% | 90.2% | 73.6% | 75.5% | 92.3%
CS(=O)(=O)c1ccc(C(=O)Nc2ccc(Cl)c(-c3ccccn3)c2)c(Cl)c1 [vismodegib] + Cc1cc(N2CCOCC2)cc2[nH]c(-c3c(NC[C@@H](O)c4cccc(Cl)c4)cc[nH]c3=O)nc12 [BMS536924] (first compound 5 µM, partner dose 1 µM) | 120% | 87.5% | 82.4% | 87% | 101% | 106% | 111% | 110% | 57% | 82.1%
CS(=O)(=O)c1ccc(C(=O)Nc2ccc(Cl)c(-c3ccccn3)c2)c(Cl)c1 [vismodegib] + COc1cc(Nc2ncc(F)c(Nc3ccc4c(n3)NC(=O)C(C)(C)O4)n2)cc(OC)c1OC [Tamatinib] (first compound 5 µM, partner dose 2 µM) | 45% | 66.5% | 84.6% | 59.1% | 75.5% | 64.1% | 65.3% | 65% | 43.9% | 79.8%
CS(=O)(=O)c1ccc(C(=O)Nc2ccc(Cl)c(-c3ccccn3)c2)c(Cl)c1 [vismodegib] + Cn1c(Nc2ccc(C(F)(F)F)cc2)nc2cc(Oc3ccnc(-c4ncc(C(F)(F)F)[nH]4)c3)ccc21 [CHIR265] (first compound 5 µM, partner dose 0.4 µM) | 35.9% | 50.8% | 54.6% | 49.4% | 85.1% | 30.6% | 48.2% | 79.4% | 70.2% | 54.7%
CCCS(=O)(=O)Nc1ccc(F)c(C(=O)c2c[nH]c3ncc(Cl)cc23)c1F + Nc1ncn([C@H]2C[C@H](O)[C@@H](CO)O2)c(=O)n1 [decitabine] (first compound 0.4 µM, partner dose 0.5 µM) | 62.6% | 98.6% | 87.7% | 68.2% | 94.1% | 51.7% | 95.5% | 66.3% | 110% | 40.5%
NC1(c2ccc(-c3nc4ccn5c(=O)[nH]nc5c4cc3-c3ccccc3)cc2)CCC1 + C=CCn1c(=O)c2cnc(Nc3ccc(N4CCN(C)CC4)cc3)nc2n1-c1cccc(C(C)(C)O)n1 [MK1775] (first compound 2 µM, partner dose 0.1 µM) | 43.1% | 72.3% | 54.1% | 55% | 76% | 66% | 54.2% | 76.9% | 36.9% | 61.8%
C=C(c1ccc(C(=O)O)cc1)c1cc2c(cc1C)C(C)(C)CCC2(C)C [Bexarotene] + Clc1ccc(Nc2nnc(Cc3ccncc3)c3ccccc23)cc1 [vatalanib] (first compound 10 µM, partner dose 10 µM) | 81.8% | 83.1% | 90.2% | 69% | 83.5% | 78.8% | 124% | 82.3% | 66.8% | 76.1%
CN(c1ncccc1CNc1nc(Nc2ccc3c(c2)CC(=O)N3)ncc1C(F)(F)F)S(C)(=O)=O + CC(C)(C)c1cnc(CSc2cnc(NC(=O)C3CCNCC3)s2)o1 [SNS-032] (first compound 0.4 µM, partner dose 0.05 µM) | 67.7% | 73.6% | 88.4% | 46.5% | 74.7% | 56.2% | 60.4% | 73.2% | 46% | 91.7%
CN(c1ncccc1CNc1nc(Nc2ccc3c(c2)CC(=O)N3)ncc1C(F)(F)F)S(C)(=O)=O + CO[C@H]1C[C@@H]2CC[C@@H](C)[C@@](O)(O2)C(=O)C(=O)N2CCCC[C@H]2C(=O)O[C@H]([C@H](C)C[C@@H]2CC[C@@H](OCCO)[C@H](OC)C2)CC(=O)[C@H](C)/C=C(\C)[C@@H](O)[C@@H](OC)C(=O)[C@H](C)C[C@H](C)/C=C/C=C/C=C/1C [everolimus] (first compound 0.4 µM, partner dose 0.1 µM) | 50.9% | 72.1% | 71.6% | 66.2% | 85.3% | 72.9% | 69.4% | 76% | 92.7% | 74.9%
CN(c1ncccc1CNc1nc(Nc2ccc3c(c2)CC(=O)N3)ncc1C(F)(F)F)S(C)(=O)=O + O=C(O)c1ccc2c(c1)nc(Nc1cccc(Cl)c1)c1ccncc12 [CX4945] (first compound 0.4 µM, partner dose 2 µM) | 65.2% | 64.9% | 75.6% | 94.9% | 69.3% | 82.7% | 77.8% | 67.5% | 54.3% | 81.2%
CS(=O)(=O)c1ccc(C(=O)Nc2ccc(Cl)c(-c3ccccn3)c2)c(Cl)c1 [vismodegib] + Cc1nc(Nc2ncc(C(=O)Nc3c(C)cccc3Cl)s2)cc(N2CCN(CCO)CC2)n1 [dasatanib] (first compound 5 µM, partner dose 0.02 µM) | 80.8% | 90.5% | 104% | 75.4% | 85.2% | 70% | 66.3% | 74.8% | 37.2% | 75.4%
NC1(c2ccc(-c3nc4ccn5c(=O)[nH]nc5c4cc3-c3ccccc3)cc2)CCC1 + OCc1c[nH]c2ccccc12 [Indole-3-carbinol] (first compound 2 µM, partner dose 4 µM) | 54.3% | 75.1% | 90.9% | 54.6% | 90.1% | 72.9% | 70.8% | 79.6% | 77.1% | 63.5%
NC1(c2ccc(-c3nc4ccn5c(=O)[nH]nc5c4cc3-c3ccccc3)cc2)CCC1 + Clc1ccc(Nc2nnc(Cc3ccncc3)c3ccccc23)cc1 [vatalanib] (first compound 2 µM, partner dose 10 µM) | 40.4% | 41.8% | 65.6% | 40.9% | 68% | 35.2% | 51.9% | 67.5% | 41.1% | 42.6%
